# Measurements as given in PMC4336329 (PLoS ONE, 2015).
# Among all 310,000 compounds or so, about 14,000 (4.5%) showed an effect of 50% or more. The effect is printed as a negative number. The list shows a part of the results.
# Molecular target: human ether-à-go-go-related gene (hERG) potassium channel (human, UniProt Q12809)
# Assay: primary screen, population patch clamp on CHO cells stably expressing hERG
# 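Further: peak tail current of the secondary pulse compared with the same well before compound.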
# Sequence of human ether-à-go-go-related gene (hERG) potassium channel (Q12809 whole entry, looked up): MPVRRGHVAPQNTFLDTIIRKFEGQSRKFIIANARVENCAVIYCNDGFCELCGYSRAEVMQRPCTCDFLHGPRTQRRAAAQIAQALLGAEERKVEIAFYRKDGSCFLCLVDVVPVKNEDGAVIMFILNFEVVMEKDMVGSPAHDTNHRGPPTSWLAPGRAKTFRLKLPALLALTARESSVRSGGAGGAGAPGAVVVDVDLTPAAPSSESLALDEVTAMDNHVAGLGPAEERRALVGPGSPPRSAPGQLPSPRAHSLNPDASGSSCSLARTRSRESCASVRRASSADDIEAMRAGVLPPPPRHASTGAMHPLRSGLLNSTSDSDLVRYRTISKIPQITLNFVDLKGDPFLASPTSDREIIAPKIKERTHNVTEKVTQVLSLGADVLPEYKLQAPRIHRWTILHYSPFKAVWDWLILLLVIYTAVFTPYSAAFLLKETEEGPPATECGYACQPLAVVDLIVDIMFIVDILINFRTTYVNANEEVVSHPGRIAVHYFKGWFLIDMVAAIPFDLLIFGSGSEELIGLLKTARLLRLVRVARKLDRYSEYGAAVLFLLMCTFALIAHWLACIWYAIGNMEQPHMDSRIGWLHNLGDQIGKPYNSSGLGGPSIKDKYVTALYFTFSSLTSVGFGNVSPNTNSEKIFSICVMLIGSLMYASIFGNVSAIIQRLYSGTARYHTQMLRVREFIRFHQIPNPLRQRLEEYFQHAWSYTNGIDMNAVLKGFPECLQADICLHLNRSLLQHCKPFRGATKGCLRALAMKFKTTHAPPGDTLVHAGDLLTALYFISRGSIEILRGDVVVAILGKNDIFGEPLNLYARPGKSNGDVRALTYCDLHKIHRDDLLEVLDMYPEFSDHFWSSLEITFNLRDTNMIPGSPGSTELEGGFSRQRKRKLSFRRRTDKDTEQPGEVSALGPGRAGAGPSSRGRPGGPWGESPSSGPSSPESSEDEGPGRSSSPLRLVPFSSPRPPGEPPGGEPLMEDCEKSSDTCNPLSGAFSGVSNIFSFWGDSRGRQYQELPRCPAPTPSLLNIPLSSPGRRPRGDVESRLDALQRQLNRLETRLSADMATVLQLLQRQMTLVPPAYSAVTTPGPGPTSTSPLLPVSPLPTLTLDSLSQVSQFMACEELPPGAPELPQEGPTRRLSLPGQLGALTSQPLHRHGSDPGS
row,Structure (SMILES),"hERG current change (%, negative = inhibition) at 10uM [%]"
1,COc1ccc(C(=O)Nc2cccc(-c3cc4ccccc4oc3=O)c2)cc1[N+](=O)[O-],-0.143
2,CSc1nc2ncc(-c3ccsc3)c(N)n2n1,11.2
3,O=C(Nc1ccc(NC(=O)c2ccc(Cl)cc2Cl)cc1)c1cccs1,14.7
4,O=C(NCc1ccco1)C1CCN(C(=O)Cc2ccccc2)CC1,7.07
5,S=C(Nc1ccc2snnc2c1)N1CCN(c2ccccn2)CC1,-0.00312
6,COC(=O)COC(=O)c1ccc(-n2nnnc2SC)cc1,3.88
7,COC(=O)c1cccc(C23CC4(C2)[C@H](CN(Cc2cccnc2)[C@@H]4c2ccccc2)C3c2ccccc2)c1 (stereo partly shown),8.51
8,CC(=O)CSc1ncnc2c1oc1ccccc12,5.35
9,COCCNC(=O)C(c1ccco1)N(C(=O)Cn1nnc2ccccc21)c1cc(C)ccc1C (stereo not shown),-4.75
10,CNC(=S)Nc1cc(C)ccc1OC(F)F,2.85
11,COc1ccc(OC)c(NC(=S)N2CCCC2)c1,7.18
12,Cc1ccc(C)c(OCCn2cc(/C=C(\C#N)C(=O)NCc3cccs3)c3ccccc32)c1,21.4
13,Cc1oc2cc(O)ccc2c(=O)c1-c1nncn1-c1ccccc1,20.2
14,COc1ccc(-c2cc(-c3ccc(C)cc3)nc(SCc3nnc(-c4ccccc4)o3)c2C#N)cc1OC,18.7
15,CNC(=O)Nc1ccccc1C(=O)Nc1ccccc1,5.82
16,CCC(C)NC(=O)C1CCC(CNS(=O)(=O)c2ccc3c(c2)N(C(C)=O)CCO3)CC1 (stereo not shown),6.84
17,COc1ccc2nc(NC(=O)C3CCCO3)sc2c1 (stereo not shown),-10.5
18,Cc1cccc(NC(=S)NC(=O)Cc2ccccc2)c1C,26.5
19,COc1ccc2[nH]cc(CCNC(=O)c3ccco3)c2c1,12.3
20,COc1ccccc1NC(=O)NC1CCCCCCC1,22.5

row,Structure (SMILES),"hERG current change (%, negative = inhibition) at 10uM [%]"
1,C=CC[n+]1c(-c2ccc(OC)c(OC)c2)csc1NNC(=O)Nc1ccccc1.[Br-],-6.07
2,O=C(O)CSc1nnc(Cn2cnc3ccccc32)n1CCc1ccccc1,22.3
3,C=CCNC(=O)CCCCC(=O)NCC=C,8.15
4,Cc1ccc(-n2ncc3c(=O)[nH]c(SCC(=O)N4CCCCC4)nc32)cc1,-8
5,Cc1ccc(CNc2nc3ccc(C)cc3n3cnnc23)cc1,11.8
6,CC(C)CN(C(=O)C1CCCO1)C1CCS(=O)(=O)C1 (stereo not shown),-6.25
7,CCOC(=O)C1(Cc2cccc(OC)c2)CCN(CCO)CC1,-54.3
8,CC(C)Oc1ccc(Cn2c(=O)sc3ccccc32)cc1,-2.73
9,O=C(CO/N=C/c1ccc(OC(F)F)cc1)N1CCc2ccccc21,-0.108
10,Cc1cc(C)nc(NC(N)=NC(C)c2ccccc2)n1 (stereo not shown),-0.0621
11,c1cnn(-c2cc(N3CCOCC3)ncn2)c1,10.9
12,O=C(COC(=O)c1nc(Cl)ccc1Cl)c1ccccc1Cl,-7.56
13,CN(Cc1ccc(Br)s1)C(=O)CNC(=O)c1ccc2c(c1)OCO2,-21.4
14,Nn1c(SCC(=O)N2CCOCC2)nnc1C1CC1,55.3
15,CCC1CN(C(=O)N2CCC(C(=O)NCc3cccc(OC)c3OC)CC2)c2cc(C)ccc2O1 (stereo not shown),-1.02
16,O=C(CN1C(=O)C(=O)N(Cc2ccccc2)C1=O)Nc1ccc(F)c(Cl)c1,10.6
17,Clc1ncc(CSc2ccccc2)s1,3.25
18,CCN(CC)S(=O)(=O)c1cccc(NC(=O)c2ccc(SC)cc2OC)c1,-32.2
19,Cc1c(C(=O)Nc2nc(-c3ccccn3)cs2)oc2ccccc12,6.09
20,Cc1cc(C(=O)NNC(=O)c2ccccc2F)c2ccccc2n1,7.87

row,Structure (SMILES),"hERG current change (%, negative = inhibition) at 10uM [%]"
1,O=C(c1cccs1)N1CCN(C(=O)c2ccco2)c2ccccc2C1,-13.6
2,CC1CC(C)CN(CCOc2ccc(Cl)cc2Cl)C1.O=C(O)C(=O)O (stereo not shown),-67.3
3,O=[N+]([O-])c1ccc(N2CCN(C(=S)Nc3ccc(F)cc3)CC2)cc1,-44.4
4,Cc1cc2oc(=O)cc(CSc3nnc(C)n3N)c2cc1C(C)C,-2.86
5,N#Cc1c(N2CCOCC2)nc(N2CCCCC2)c2c1CCN(C1CCCCC1)C2,-29.1
6,CCOc1ccc(CCNC(=O)CCS(=O)(=O)c2ccc(Cl)cc2)cc1OCC,16.6
7,O=C(O)Cc1sc(-c2cccnc2)nc1-c1ccc(Br)cc1,70.5
8,CCN(CC(=O)NCc1ccc(Cl)cc1)C(=O)c1cnc(Cl)c(Cl)c1,5.29
9,CC(C(O)c1ccccc1)N(C)CCn1cnc2c1c(=O)n(C)c(=O)n2C (stereo not shown),14
10,CCOc1ccc2nc(NC3=NC(C)(C)C=C(C)N3)nc(C)c2c1,-47.8
11,c1ccc2c(CNc3ccc(CNc4ncn[nH]4)cc3)cccc2c1,1.99
12,O=C(CNC1CCCCC1)Nc1cccc([N+](=O)[O-])c1,-9.63
13,O=c1c2cc(N3CCOCC3)ccc2[nH]c(=S)n1Cc1ccccc1Cl,6.94
14,CS(=O)(=O)c1ccc(Cl)c(NC(=O)COC(=O)c2cccc(S(=O)(=O)N3CCCC3)c2)c1,-51.5
15,O=C(CCS(=O)(=O)c1ccccc1)Nc1nc(-c2ccc(F)cc2)cs1,-11
16,CSc1nc(C)cc(SCC(=O)Nc2ccc(Cl)cc2Cl)n1,3.18
17,CCOC(=O)C(NC(=O)c1ccccc1OCC)(Nc1ncccn1)C(F)(F)F (stereo not shown),-10.4
18,Cc1ccc(OCCCn2c(CO)nc3ccccc32)cc1,-14.2
